Whole data set: some 33,000 sequences, median “E-score (-0.5 to 0.5)” near -0.032, cut for the highest 2% near 0.36. Some of the results follow.
Each sequence was assayed against T1, Sko1 (UniProt Q02100) (assay: PBM E-score (8-mer binding enrichment) (E-score (-0.5 to 0.5)); higher = stronger / more preferred TF binding; most listed sequences are background and not binding sites). Conditions: protein concentration: 200 nM; construct: GST-full length.
T1 sequence: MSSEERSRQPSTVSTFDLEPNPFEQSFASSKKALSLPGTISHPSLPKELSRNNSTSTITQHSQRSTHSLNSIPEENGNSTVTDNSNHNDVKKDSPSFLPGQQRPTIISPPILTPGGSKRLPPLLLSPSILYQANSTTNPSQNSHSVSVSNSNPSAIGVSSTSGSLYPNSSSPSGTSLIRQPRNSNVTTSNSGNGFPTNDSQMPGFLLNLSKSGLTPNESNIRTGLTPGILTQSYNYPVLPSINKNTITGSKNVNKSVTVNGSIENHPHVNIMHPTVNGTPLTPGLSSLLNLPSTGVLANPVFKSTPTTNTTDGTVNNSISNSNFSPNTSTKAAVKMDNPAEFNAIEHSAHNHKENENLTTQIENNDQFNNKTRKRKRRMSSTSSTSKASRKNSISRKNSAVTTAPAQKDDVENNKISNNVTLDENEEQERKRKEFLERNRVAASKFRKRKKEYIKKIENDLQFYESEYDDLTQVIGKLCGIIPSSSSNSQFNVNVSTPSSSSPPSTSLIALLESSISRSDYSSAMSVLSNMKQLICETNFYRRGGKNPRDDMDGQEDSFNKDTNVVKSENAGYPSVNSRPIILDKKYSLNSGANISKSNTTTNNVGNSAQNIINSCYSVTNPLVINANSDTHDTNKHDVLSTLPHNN
Summary of the method: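 Universal all-10-mer Agilent arrays, fresh or stripped once, were converted to double-stranded form by primer extension. GST-tagged yeast transcription factors from PURExpress in vitro transcription/translation, full-length or DNA-binding domain only, were applied at about 100-200 nM and detected with fluorescent anti-GST. After masliner normalisation, the Universal PBM Analysis Suite scored each ungapped eight-base word together with its reverse complement by E-score.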

| Sequence | PBM E-score |
| --- | --- |
| AGTGCGGA | -0.057 |
| AGGGCCAC | -0.224 |
| GTTCGACA | 0.063 |
| ACGTAATG | 0.492 |
| AAACAGAT | 0.129 |
| AGCTTTGG | -0.172 |
| ATCCGTCC | -0.0981 |
| CGGGTACC | -0.259 |
| GAAACTTC | -0.00539 |
| ATTTCCAC | 0.0703 |
| ATTAAAGG | 0.0139 |
| AGCTCTTG | -0.0909 |
| CCCTTACC | -0.0536 |
| ACGAACCG | 0.105 |
| AGTGCTGA | -0.124 |
| ACGGCGGC | -0.163 |
| ATATATGA | 0.221 |
| CGGTCCAG | -0.124 |
| AACAACGC | 0.137 |
| AGCCTAAT | -0.0565 |
| AATATTAA | 0.327 |
| GACGTACC | 0.433 |

| Sequence | PBM E-score |
| --- | --- |
| ACGCTAGG | -0.104 |
| CTTTCGTA | 0.339 |
| GCCAGGCA | -0.0554 |
| ACGTCAAA | 0.447 |
| CACCCTTA | -0.0951 |
| GTATGATA | 0.329 |
| AAGCTTGG | -0.179 |
| ACGCCATG | 0.368 |
| AACCACCT | -0.0328 |
| CGCTGGTA | -0.065 |
| AGGAGGAA | -0.0768 |
| ATACTGGG | -0.162 |
| AACTAGTC | -0.174 |
| AACGATCG | 0.0421 |
| ACCCAAGT | -0.191 |
| AGCGTGAC | 0.124 |
| CTCTTCCC | -0.0957 |
| CAGGAACC | -0.214 |
| CACGTCAA | 0.426 |
| ATATCCAT | 0.141 |
| AGATCTAT | -0.0808 |
| AATTGGTC | 0.089 |

| Sequence | PBM E-score |
| --- | --- |
| ACCGTTTG | -0.142 |
| AGGGGTCC | -0.162 |
| AGGGCCCC | -0.283 |
| TGAGCGCA | -0.0878 |
| CGCCCAGA | -0.252 |
| CCTGGCGA | -0.35 |
| TACCGTCA | 0.266 |
| AAAGTTGC | -0.0136 |
| TAGCTCAA | 0.0344 |
| AAGGGGGA | -0.288 |
| AGGTCTTG | -0.159 |
| TGGCAACA | -0.0552 |
| CGGAGGAA | -0.2 |
| ATTGTATA | 0.177 |
| AATCCAGT | -0.0398 |
| CAACAGGC | -0.168 |
| CCTTAGGA | -0.0321 |
| TATTTCAA | 0.318 |
| TTGCACAA | 0.0801 |
| CGATCATC | -0.0331 |
| AAGGCGGT | -0.229 |
| AGGCTAGG | -0.236 |

| Sequence | PBM E-score |
| --- | --- |
| AGCATGTG | -0.141 |
| CATGATGA | 0.304 |
| TACGCGAA | 0.277 |
| AAGTATCG | -0.0131 |
| CCGCTAAA | -0.167 |
| CCCAGCCC | -0.277 |
| GGATCCAA | -0.00021 |
| GCATTGCC | -0.21 |
| CGCGGAAG | -0.227 |
| GGAACGTA | 0.289 |
| ACCGGTGC | -0.133 |
| AATAGTTC | 0.163 |
| AATAACTC | 0.0275 |
| ACCACGTG | 0.362 |
| ACGTGTAG | 0.367 |
| GCATCCCC | -0.226 |
| GCATACAA | 0.114 |
| AACGGGAA | -0.0254 |
| GGACTCTA | -0.24 |
| ACGGCGAG | -0.0904 |
| ATATCGGG | -0.0441 |
| AATGAAGT | 0.127 |

| Sequence | PBM E-score |
| --- | --- |
| TCAAATGA | 0.172 |
| GAATAAAA | 0.215 |
| CGTCGGTA | 0.128 |
| AGTCACCC | -0.145 |
| AGGGCAGC | -0.262 |
| ATGCACAA | -0.00169 |
| AAACATGG | -0.158 |
| TCCTAAGA | -0.018 |
| GTTGTAAA | 0.101 |
| ATATGATG | 0.344 |
| GCTTGATA | 0.117 |
| ACCAGCGC | -0.0872 |
| AAGTGCAA | -0.0729 |
| TGTGATAA | 0.258 |
| TGATTCAA | 0.144 |
| CACATGGA | -0.0377 |
| CAACCGGG | -0.217 |
| ATGAATAC | 0.301 |
| TCGCCCAA | -0.144 |
| ACGCGCGG | 0.108 |
| ACAATCGA | 0.0433 |
| TATACTGA | 0.198 |

Source: the supplement of paper PMC3334620
